For 84 compounds, activation results are on record in PubChem BioAssay AID1346428 (National Center for Advancing Translational Sciences (NCATS), 2018).

About 1,200 (2.5%) of roughly 48,000 compounds were called active. Roughly 2% stayed inconclusive and do not appear here.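 How the source made its calls: active means activation of at least 60% and not above a set upper limit (about 1 call in 100 departs from these limits); inconclusive means activation of 40% to 60%, or above that upper limit; inactive means activation under 40%.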 This is one part of the list.

The target of this assay is Probable G-protein coupled receptor 32 (Homo sapiens) (UniProt O75388). Kind of assay: qHTS for Agonists of Human Resolvin D1 Receptor DRV1. Further: 0% is about no effect. As to conditions: CHO-K1 GPR32 beta-arrestin PathHunter luminescence, 90 min; at 76.9 µM; stronger effect = higher value; zero percent set by DMSO-only wells. The procedure, abridged: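 Readings come from a cell-based beta-arrestin complementation format: CHO-K1 GPR32 stable cells (2,500/well) treated 90 min with compounds, then beta-Gal substrate added for 1 h before chemiluminescence imaging.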
UniProt O75388, sequence (O75388 whole entry, looked up): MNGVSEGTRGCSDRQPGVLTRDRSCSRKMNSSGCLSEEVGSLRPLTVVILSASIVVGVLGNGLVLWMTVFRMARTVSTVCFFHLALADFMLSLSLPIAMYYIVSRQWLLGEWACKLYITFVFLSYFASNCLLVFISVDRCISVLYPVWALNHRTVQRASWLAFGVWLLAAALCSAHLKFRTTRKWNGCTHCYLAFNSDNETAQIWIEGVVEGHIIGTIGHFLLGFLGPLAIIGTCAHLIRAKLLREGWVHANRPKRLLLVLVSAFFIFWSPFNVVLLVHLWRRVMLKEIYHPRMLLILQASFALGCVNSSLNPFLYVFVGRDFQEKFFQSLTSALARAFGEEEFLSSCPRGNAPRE
For orientation: qHTS replaces the single test concentration by a dilution series.
Take `COCCCNC(=O)c1sc2nc(C)c(C(=O)Nc3ccc(C)cc3C)c(-c3ccccc3Cl)c2c1N`: the activation was inactive: -31.5%.
For `CCc1ccc2oc(-c3ccc(NC(=O)c4cc5ccccc5o4)cc3)nc2c1` the value was inactive: 6.82%.
The value for `CCCNC(=O)CCCN1C(=O)CCn2nc(-c3cccn3C)cc21` was inactive: 2.58%; that for `CCc1cc(=O)oc2c(C)c3c(cc12)CN(CCc1ccccc1OC)CO3` was inactive: -21.4%; that for `COc1ccc(C(=O)NCc2ccc3c(c2)CCN3C(=O)c2ccccc2)cc1` was inactive: -16.8%.
The value for `O=C(O)CCCC[C@@H]1CCSS1` was inactive: -24.7%; that for `Cc1cc(C)cc(Nc2cc(C(=O)NCCCN(C)C3CCCCC3)c3ccccc3n2)c1` was inactive: -2%; that for `Cc1ccc(Cl)cc1N1CCN(C(=O)c2ccc(CS(=O)c3ccccc3)o2)CC1` (centres undefined) was inactive: -17.7%.
As to `O=C(CCSCc1cnn(-c2ccccc2)c1-n1cccc1)NCc1ccccc1Cl`, the activation was inactive: -21.6%.
The value for `COc1ccc(NS(=O)(=O)c2ccc(-c3cnc(C4CC4)o3)cc2)cc1Cl` was inactive: 3.49%.
For `COCCNC(=O)c1nn(-c2ccc(C)cc2)c(=O)n(C)c1=O` the value was inactive: -6.11%; for `COc1ccc(C(CNC(=O)c2oc3cc(C)c(Cl)cc3c2C)N2CCCCC2)cc1` (centres undefined), inactive: 1.42%.
`CC1CCN(S(=O)(=O)c2ccc3nc(NCc4ccccc4)ccc3c2)CC1`: the activation is inactive: -1.72%.
For `COCCNC(=O)CCc1c(C)n(C)c2cc(-c3cc(OC)c(OC)c(OC)c3)nn2c1=O` the value was inactive: -12.6%; for `COC(=O)c1scc(-c2ccc(C)cc2)c1S(=O)(=O)N1CCN(c2ccc(C)cc2C)CC1`, inactive: -34.2%.
`Cn1c(=O)c(=O)n(C)c2cc(C(=O)NCc3ccccc3Cl)ccc21`: the activation is inactive: -9.71%.
For `O=C(Cn1nc(-c2ccc(Cl)cc2)c2ccccc2c1=O)Nc1cccc(C(F)(F)F)c1` the value was inactive: -7.74%; for `Cn1c(SCc2cc(=O)c3cc(Cl)ccc3[nH]2)nnc1-c1ccccc1`, inactive: 2.31%.
For `COc1cccc(Nc2nc3ccccc3c3nncn23)c1` the value was inactive: -5.84%; for `COc1ccc(C2=NS(=O)(=O)N(C)C(C(=O)N(C)Cc3ccccc3)=C2)cc1OC`, inactive: -3.17%; for `Cc1ccccc1OCc1nc2ccccc2n1Cc1ccccc1Cl`, inactive: -35.3%.
For `CC(=O)c1ccc(NC(=O)CSc2cn(CC(=O)N(C(C)C)C(C)C)c3ccccc23)cc1` the value was inactive: -18.4%; for `CC(C)CCn1c(Oc2ccccc2F)nc2c1c(=O)n(C)c(=O)n2C`, inactive: -26%; for `CCCOc1cccc(C2c3c(-c4ccccc4O)n[nH]c3C(=O)N2Cc2ccco2)c1` (centres undefined), inactive: 8.88%.
For the compound `Cc1cccc(Nc2ccncc2S(=O)(=O)NC(=O)NC(C)C)c1`, the activation was inactive: 7.76%.
The value for `CCS(=O)(=O)N1CCc2cc(C(=O)Nc3cccc(C(C)=O)c3)ccc21` was inactive: 10.7%; that for `CCCCN(CC)C(=O)CCNS(=O)(=O)c1ccc2c(c1)c(=O)n(C)c(=O)n2C` was inactive: -1.14%.
For `CCCNC(=O)C1Cc2cc(S(=O)(=O)N3CCCCCC3)ccc2N1C(C)=O` (centres undefined) the value was inactive: -21.4%.
For `CCCNC(=O)Cn1c(=O)c2cccn2c2cccnc21` the value was inactive: -1.74%; for `CCCn1cnc2cc(NCc3ccccc3OCC)ccc21`, inactive: -29.3%.
Regarding `CCn1c(C(=O)NCc2ccccc2Br)cc2oc3ccccc3c21`, the activation was inactive: 24.2%.
The value for `COC(=O)c1ccc(C(=O)OC)c(NC(=O)c2cc3nc(-c4ccc(C)cc4)cc(C(F)(F)F)n3n2)c1` was inactive: -8.82%; that for `Cc1ccc(C)c(N2C(=O)N(Cc3cccc(C(F)(F)F)c3)c3ccccc3S2(=O)=O)c1` was inactive: -19.4%; that for `CCn1c2c(c(=O)n3ncc(C(=O)N4CCN(c5ccc(C(C)=O)cc5)CC4)c13)CN(Cc1ccc(OC)cc1)CC2` was inactive: 4.24%.
Consider `CCN(CC)C(=O)Cn1c(=O)n(Cc2ccc(C(=O)NCCCOC)cc2)c(=O)c2ccccc21`, for which the activation was inactive: 10%.
For `O=C(Nc1ccc(F)cc1F)c1cc(S(=O)(=O)N2CCCCC2)c[nH]1`, the activation is inactive: 18.7%.
Consider `COc1ccc(F)cc1S(=O)(=O)Nc1ccc2c(c1)CCCN2C(=O)c1cccs1`, for which the activation is inactive: -16.1%.
For `COc1ccc(C(=O)CCC(=O)Nc2ccc(F)cc2F)cc1` the value was inactive: -19.9%; for `Cc1ccc(C)c(NC(=O)N2CCN3CCCCC3C2)c1` (centres undefined), inactive: -8.85%.
The value for `CC(=O)c1c(C)oc2c1cc(NS(=O)(=O)c1c(C)cc(C)cc1C)c1ccccc12` was inactive: 22.3%; that for `Cc1cc(NC(=O)c2cc(Cl)ccc2Cl)ccc1-c1cc2ccccc2oc1=O` was inactive: -7.38%; that for `CCOC(=O)C1=C(C)N=C2SCCC(=O)N2C1c1ccc(OCc2ccccc2)c(OC)c1` (centres undefined) was inactive: -8.74%.
Consider `COC(=O)c1sccc1S(=O)(=O)N(CC(=O)NCc1ccc(C)cc1)c1ccc(C)c(C)c1`, for which the activation was inactive: 7.86%.
The value for `CCOC(=O)CSc1nc2cc(OC)c(OC)cc2c2nc(-c3ccccc3)nn12` was inactive: 3.78%.
The value for `NS(=O)(=O)c1ccc(NC(=O)COc2ccc(S(=O)(=O)NC3CCCCC3)cc2)cc1` was inactive: 18.6%; that for `COc1cccc(-n2nnc(-c3nc(-c4cccs4)no3)c2N)c1` was inactive: 2.97%; that for `COc1ccc(NS(=O)(=O)c2ccc3[nH]c(=O)ccc3c2)cc1OC` was inactive: -4.74%.
For `O=C1CS(=O)(=O)C2(C(=O)N(Cc3ccccc3)c3ccccc32)N1c1ccc(F)c(Cl)c1` (centres undefined), the activation was inactive: 7.01%.
For the compound `CCOc1ccc(S(=O)(=O)Nc2cccc(OC)c2)c2cccnc12`, the activation was inactive: 6.72%.
The value for `CN1C(=O)c2ccccc2Sc2ccc(NC(=O)NCc3ccc(Cl)cc3)cc21` was inactive: -14.1%; that for `Cc1ccc(CCNC(=O)CN2C(=O)COc3ccc(S(=O)(=O)N4CCCCCC4)cc32)cc1` was inactive: -36.6%; that for `O=C(Nc1cccc(Cl)c1)c1cc(-c2ccc3c(c2)OCO3)on1` was inactive: 35.1%.
Consider `COc1ccc(S(=O)(=O)N(CC(=O)Nc2ccccc2Cl)Cc2ccccc2)cc1`, for which the activation was inactive: -3.32%.
The value for `COc1cc(OC)cc(C(=O)Nc2ccc3nc4n(c(=O)c3c2)CCCCC4)c1` was inactive: -8.69%; that for `CCCCC(=O)Nc1ccc(OCc2cc(=O)n3c(C)csc3n2)cc1` was inactive: -3.36%; that for `O=C(NCc1ccccc1Cl)c1c2c(nc3ccccc13)C(=O)N(C1CCCCC1)C2` was inactive: -14.4%.
For `COC(=O)CCCCCn1c(-c2ccccc2)cn2c3c(=O)n(C)c(=O)n(C)c3nc12` the value was inactive: 8.61%; for `CCN(CC)c1ccc(C2C(C(=O)Nc3ccccc3C)=C(C)Nc3ncnn32)cc1` (centres undefined), inactive: 3.92%.
For `Cc1cccc(CCn2c(=O)c3ccccc3n(CC(=O)Nc3ccccc3F)c2=O)c1` the value was inactive: 10%; for `Cc1cc2c(cc1NC(=O)c1ccccc1Cl)n(C)c(=O)c(=O)n2C`, inactive: 8.08%.
As to `Cc1ccn2c(=O)cc(CSc3nnc(C)s3)nc2c1`, the activation is inactive: -15.9%.
The value for `COc1ccc(OC)c(C(=O)CSc2ncc3c(n2)-c2ccccc2N(Cc2ccccc2C)S3(=O)=O)c1` was inactive: -12.1%.
For `CCN(Cc1ccccc1)Cc1c(O)ccc2c(=O)c(-c3ccc(Cl)cc3)c(C(F)(F)F)oc12` the value was inactive: -0.294%.
For `Cc1ccc(C)c(N2CCN(CCCNC(=O)c3cnn(-c4ccccc4)c3C3CCN(C(=O)OC(C)(C)C)CC3)CC2)c1` the value was inactive: -18.1%; for `Cc1cccc(-c2noc(-c3ccccc3OCC(=O)Nc3ccccc3[N+](=O)[O-])n2)c1`, inactive: -9.05%; for `Cc1ccn2cc(CNC(=O)c3cccc(C(F)(F)F)c3)nc2c1`, inactive: -14.7%.
For `COc1ccccc1Nc1c2c(nc3ccc(NC(=O)c4ccccc4F)cc13)CCCC2`, the activation was inactive: -34.1%.
Turning to `CCN(CC)CCCNC(=O)c1cn(CC(C)C)c(=O)c2c1c1ccccc1n2C`, the activation is inactive: -1.07%.
The value for `Cc1ccc2nc(-c3ccsc3)c(Nc3ccc(Cl)cc3)n2c1` was inactive: -29.5%; that for `COc1ccc(-c2nnc(SCC(=O)N3CCc4ccccc43)o2)cc1OC` was inactive: 2.71%.
For `COc1ccc(-c2nc3scc(CCNS(=O)(=O)c4ccc(Oc5ccccc5)cc4)n3n2)cc1` the value was inactive: -13.7%.
The value for `CC(=O)c1cccc(NC(=O)[C@H]2O[C@@H]3OC(C)(C)O[C@@H]3[C@H]3OC(C)(C)O[C@H]32)c1` was inactive: -77%; that for `COc1ccc(OCC(=O)N(Cc2sccc2C)C2CCS(=O)(=O)C2)cc1` (centres undefined) was inactive: -12.8%.
With `CCOC(=O)c1ccc(NC(=O)C(C)Sc2nc(=O)cc(N)n2CCc2ccccc2)cc1` (centres undefined), the activation was inactive: 10.6%.
For `Cc1nn(C)c(C)c1S(=O)(=O)N(CC(=O)N1CCN(c2ccccc2)CC1)c1ccc(C(C)C)cc1` the value was inactive: -13%.
The value for `CCOc1ccccc1NC(=O)C1CCN(S(=O)(=O)c2ccc3[nH]c4c(c3c2)CCCCC4)CC1` was inactive: -7.15%.
The value for `Cc1cc(C)n(-c2nnc(Nc3cc(Cl)ccc3C)c3ccccc23)n1` was inactive: -7.63%; that for `COc1ccccc1NC(=O)c1cc2c([nH]c1=O)CC(C)(C)CC2=O` was inactive: 17.7%.
`Cc1ccc(C)c(NC(=O)Cn2c(=O)ccc3cc(S(=O)(=O)N4CCCC4)ccc32)c1`: the activation is inactive: 30.1%.
The value for `O=C1C2=C(Nc3ccccc3SC2c2ccccc2C(F)(F)F)c2ccccc21` (centres undefined) was inactive: -57.2%; that for `O=C(NCc1cccs1)c1ccc(CSc2nc3cccnc3n2Cc2ccccc2)cc1` was inactive: -32.2%.
The value for `O=C(CCn1c(=O)c2cccn2c2ccccc21)Nc1ccc(F)cc1` was inactive: -15.7%; that for `CCCCCNC(=O)c1ccc2c(c1)nc(C)n2-c1cccc(C)c1` was inactive: -3.74%.
The value for `Cc1ccccc1NC(=O)c1ccc(F)c(S(=O)(=O)N(C)C2CCCCC2)c1` was inactive: -19.2%.
